Experimental data as given in ChEMBL document CHEMBL4888484, “Replenishing the malaria drug discovery pipeline: Screening and hit evaluation of the MMV Hit Generation Library 1 (HGL1) against asexual blood stage Plasmodium falciparum ,using a nano luciferase reporter read-out” (2022).
Screen size: about 150,000 compounds; about 540 (0.36%) showed an effect of 50% or more. This is one part of the list.

Tested on: Plasmodium falciparum
Assay: Primary screen in NF54 nanoGlo assay, in single point, at 2uM, 72h; a lower Z score goes with more inhibition
Type: functional, Erythrocyte
Conditions: timepoint 72 hour

Row | Structure (SMILES) | % Inhibition [%] | Z score
1 | Cc1nc(C(=O)NCCc2c[nH]c3ccccc23)c(-c2ccc(F)cc2)s1 | -3 | 0.42
2 | CCCc1ccc(OCCNC(=O)C2CCCC2)cc1 | 36 | -4.61
3 | CC(=O)Nc1nc(C(=O)N[C@H](c2ccncc2)C2CC2)cs1 | 0 | -0.08
4 | CC(C)CNC(=O)c1ccc(Cl)c(N2C(=O)CCS2(=O)=O)c1 | -13 | 1.41
5 | Cn1cc(CC(=O)NCc2cccnc2)c2cccnc21 | -11 | 1.23
6 | O=C(NC[C@H]1CCS(=O)(=O)C1)c1ccccn1 | -3 | 0.57
7 | CC(=O)c1cccc(NC(=O)N(Cc2ccccc2)C2CCCCC2)c1 | 3 | -0.38
8 | CCOC(=O)[C@@](C)(NC(=O)c1scnc1C)C(C)C | 8 | -1.12
9 | CCc1noc(C2CCC(NC[C@H](O)c3ccco3)CC2)n1 (stereo partly drawn) | -9 | 1.16
10 | CCC(O)(CC)CNC(=O)C1(CC)COC1 | -6 | 0.87
11 | c1cnc2[nH]cc(Cc3noc([C@@H]4CCOC4)n3)c2c1 | -6 | 1.16
12 | O=S(=O)(NC[C@H]1CN(C2CC2)CCO1)c1c(F)cccc1Cl | -13 | 1.51
13 | CON1CCC(C(=O)NC2c3ccccc3CCC2C)CC1 (stereo not drawn) | 0 | -0.03
14 | O=C1CN(C(=O)N[C@@H](Cc2ccccc2)C(=O)Nc2ccc3c(c2)OCCO3)c2ccccc2N1 | -13 | 1.71
15 | CC(O)C1CCN(C(=O)NCCc2ccc(Br)o2)C1 (stereo not drawn) | -14 | 1.46
16 | CCN(C)C(=O)Oc1cccc([C@H](C)N(C)C)c1 [RIVASTIGMINE] | 7 | -0.82
17 | CCCc1cc(=O)n(-c2ccc(C(=O)N[C@H]3COC[C@@H]3OC)cc2)[nH]1 | -14 | 1.89
18 | CC(C)c1ccc(N2C[C@@]34C=C[C@@H](O3)C(C(=O)O)C4C2=O)cc1 (stereo partly drawn) | -9 | 1
19 | COc1ccccc1OCc1n[nH]c([C@H]2CCCN(CC(N)=O)C2)n1 | -1 | 0.13
20 | Cc1occc1C(=O)Nc1ccccc1-n1ccc(C(=O)O)n1 | 0 | 0.03
21 | COCCn1nnnc1[C@@H]1CN(CC(=O)Nc2cccc(C)c2C)CCO1 | -10 | 1.73

Row | Structure (SMILES) | % Inhibition [%] | Z score
22 | O=C(Nc1ccn(Cc2cccnc2)n1)c1cccnc1O | -7 | 1.02
23 | O=C(Nc1c(Cl)cccc1Cl)c1ccc(COc2ccc3c(c2)CCC3)o1 | -15 | 1.99
24 | CO[C@H]1C[C@H]2CN(C(=O)COCc3ccccc3)CC(=O)N2C1 | -11 | 1.76
25 | CCN(CC(=O)Nc1ccc2c(c1)OCCCO2)Cc1nc2cc(OC)c(OC)cc2c(=O)[nH]1 | 3 | -0.47
26 | CC(CNS(C)(=O)=O)OC(=O)C1CC2CCC1C2 (stereo not drawn) | -13 | 2.39
27 | Cc1c(NC(=O)NCC2CCCCCCC2)c(=O)n(-c2ccccc2)n1C | -11 | 1.12
28 | CC(C)(C)c1ccc(OCC2CCN(C(=O)c3c[nH]c4ncccc34)CC2)nn1 | -12 | 1.38
29 | O=C(c1csc(Nc2cc(F)cc(F)c2)n1)N1CC[C@H](O)C1 | 7 | -0.83
30 | Cc1noc2ncc(C(=O)N3CCC[C@@H]3CC(C)(C)C)cc12 | 38 | -5.17
31 | COCc1nn(C)cc1C(=O)N1CCCN(Cc2ccc(Cl)cc2)CC1 | -9 | 1.52
32 | O=C1NC2(CCN(Cc3ccncc3)CC2)Nc2cccc(Cl)c21 | -8 | 0.75
33 | Cc1nc2c(C(=O)O)snc2c(=O)n1Cc1ccc(Cl)cc1 | -7 | 0.89
34 | CCc1cncc(C(=O)N2CCCc3ccnc(N(C)C)c32)c1 | -6 | 0.66
35 | Clc1cccc(CNc2cnn(Cc3nnc4n3CCCC4)c2)c1 | -5 | 0.69
36 | COc1ccc(N2CCN(C(=O)[C@H]3CCC[C@H]3NC(=O)c3ccc(OC)nc3)CC2)cc1 | -4 | 0.49
37 | C[C@]1(c2ccc(Cl)c(Cl)c2)NC(=O)N(Cc2coc(-c3ccccc3)n2)C1=O | -18 | 1.65
38 | COc1cccc([C@H]2CC(O)=Nc3c2ncn3-c2cc(F)ccc2F)c1 | 27 | -3.01
39 | CCn1cc(C(=O)NC[C@H]2CCCN(CC(C)C)C2)nn1 | 5 | -0.57
40 | CCN(CC)c1nc(-c2nnc(-c3ccc(C)cc3)o2)nc2ccccc12 | -5 | 0.84
41 | O=C(Nc1ccccc1Cl)c1ccc(-c2c(-c3ccc(F)cc3)ncn2C2CCCC2)o1 | 4 | -0.6
42 | O=C(CNC(=O)c1ccc(C(F)(F)F)cc1)Nc1cccc(C(=O)NC2CC2)c1 | -1 | 0.14

Row | Structure (SMILES) | % Inhibition [%] | Z score
43 | C[C@H]1CN(c2ccnc(C(=O)NCc3ccccc3)c2)CC(C)(C)O1 | -6 | 1.14
44 | COC[C@H]1CCCN(C(=O)Nc2c(C)cnn2Cc2ccccc2Cl)C1 | 3 | -0.59
45 | COc1ccc2cc([C@@H]3CN(CCc4nnn[nH]4)CCO3)ccc2c1 | -10 | 0.97
46 | Cc1nccn1Cc1nc(C2CCOCC2)nn1C[C@H]1COCCO1 | -6 | 1.01
47 | O=C(NCCCc1ncc[nH]1)[C@@H]1[C@H]2[C@@H]3CC[C@@H](C3)[C@@H]12 | 0 | 0.06
48 | COCCN(Cc1cccs1)C(=O)c1cc(C2CC2)nc2c1c(C)nn2C(C)(C)C | 2 | -0.17
49 | Cn1nc(-c2nnc(-c3ccccc3)o2)c2c1CCN(S(=O)(=O)c1ccc(F)cc1F)C2 | -30 | 2.61
50 | CC(C)COC[C@@H](O)Cn1nnc(-c2ccsc2)n1 | -5 | 0.7
51 | COc1ccccc1-c1nc(S(=O)(=O)c2ccc3c(c2)OCCO3)c(N2CCCCC2)o1 | 14 | -1.86
52 | CC(C)Oc1ccc(C(=O)NCc2cc(-c3cccs3)nn2C)cc1 | -1 | 0.12
53 | Cc1ccc(C)c(OCC(=O)NC2(C(=O)O)CCC2)c1 | -10 | 1.34
54 | Cc1cccc(C)c1NC(=O)CN1CN(c2cccc(F)c2)c2ncccc2S1(=O)=O | -15 | 1.6
55 | CCn1c(-c2cc(NC(=O)Cc3ccccc3C)[nH]n2)cc2c(OC)cccc21 | 1 | -0.13
56 | N#Cc1ccc(C(=O)NCCCc2nnc3ccccn23)cn1 | -18 | 3.43
57 | NC[C@H]1Cc2cccc(-c3ccc4[nH]ncc4c3)c2O1 | -2 | 0.24
58 | CCN(CC)S(=O)(=O)c1cc(C)c(C)c(NCc2cc3n(n2)CCCC3)c1 | -2 | 0.49
59 | C[C@H]1Cc2ccccc2N1C(=O)CN1CCN(Cc2ccccc2F)CC1 | 24 | -3.05
60 | Cc1ncsc1C(=O)N1CC2CC1CS2(=O)=O (stereo not drawn) | -4 | 0.82
61 | Cc1ccc2c(=O)n([C@@H](C)c3c(C)nn(C)c3C)cnc2c1C | 1 | -0.18
62 | CCC(NC(=O)N(C)C(C)CS(C)(=O)=O)c1cccc(Cl)c1 (stereo not drawn) | 0 | 0.01
63 | CC(C)(C)C1CNC(=O)C1C(=O)NCCCn1ncccc1=O (stereo not drawn) | 6 | -0.95

Row | Structure (SMILES) | % Inhibition [%] | Z score
64 | CCOC(=O)c1cc(NC(=O)C(C)(C)NC(=O)OC(C)(C)C)c(F)cc1C | 35 | -5.05
65 | O=C(CCc1cccs1)N(Cc1cncs1)Cc1cncs1 | -6 | 1.14
66 | Cc1cnc(OC2CCN([C@@H](C(=O)O)c3ccsc3)CC2)nc1 | 9 | -1.25
67 | CCN1C(=O)c2ccc(Cl)cc2NC12CCC(O)CC2 (stereo not drawn) | 1 | -0.12
68 | CCN1C(=O)C(=O)N(CC(=O)N2CCN(c3cccc(Cl)c3)CC2)C1=O | -11 | 1.47
69 | COc1ccc(-c2cc3n(n2)CCC(=O)N3CC(=O)NCCCN2CCOCC2)cc1 | -4 | 0.39
70 | Cc1cc(S(N)(=O)=O)ccc1Cl | -7 | 1.34
71 | CC1CCN(C(=O)CCc2nc([C@@H]3CCCN3S(C)(=O)=O)no2)CC1 | -14 | 1.61
72 | CC(C)(CNC(=O)NCCC1CCCC1)C(N)=O | -6 | 0.74
73 | O=C(c1cc2ccccc2s1)N1CCCc2ccccc21 | -5 | 0.98
74 | Cc1ccc(-c2cc(C)c(=O)n(C)c2)o1 | 3 | -0.6
75 | Nc1cnn(-c2cnc3ccccc3n2)c1 | 10 | -1.13
76 | Cc1nsc(C(=O)N2CCN(c3ncccn3)CC2)n1 | -15 | 2.28
77 | COc1cc(CN2CCC(F)(F)CC2)ccc1OC[C@@H](O)CN1CCOCC1 | -16 | 1.49
78 | O=C(c1cnns1)N1CCN(Cc2nnc3n2CCCCC3)CC1 | -3 | 0.27
79 | COCc1noc(CN2CC[C@H](NC(=O)c3ccccc3)[C@@H](O)C2)n1 | -9 | 1.64
80 | Cc1ccc(-n2nc3c(N4CCCC4)nnc(C)c3c2C)cc1 | -29 | 3.39
81 | CN1CCO[C@@H](CNC(=O)c2cccc(NC(=O)c3ccco3)c2)C1 | -11 | 1.41
82 | C#Cc1cccc(NC(=O)N2CC(S(=O)(=O)c3ccccc3F)C2)c1 | -12 | 1.18
83 | O=C(c1ccc2c(c1)OCO2)N1CC(S(=O)(=O)C2CCCCC2)C1 | -13 | 1.7
84 | CCN(CC)S(=O)(=O)c1ccc(O)c(NC(=O)C(=O)c2cnn(C)c2)c1 | -6 | 0.88
